Laboratory results from the supplement of paper PMC3334620.
The full ranking holds about 33,000 sequences; the median of “E-score (-0.5 to 0.5)” is about -0.013, and the highest 2% start at about 0.3. The list shows a part of the results.

Target: T1, Msn1 (UniProt P22148)
T1 sequence: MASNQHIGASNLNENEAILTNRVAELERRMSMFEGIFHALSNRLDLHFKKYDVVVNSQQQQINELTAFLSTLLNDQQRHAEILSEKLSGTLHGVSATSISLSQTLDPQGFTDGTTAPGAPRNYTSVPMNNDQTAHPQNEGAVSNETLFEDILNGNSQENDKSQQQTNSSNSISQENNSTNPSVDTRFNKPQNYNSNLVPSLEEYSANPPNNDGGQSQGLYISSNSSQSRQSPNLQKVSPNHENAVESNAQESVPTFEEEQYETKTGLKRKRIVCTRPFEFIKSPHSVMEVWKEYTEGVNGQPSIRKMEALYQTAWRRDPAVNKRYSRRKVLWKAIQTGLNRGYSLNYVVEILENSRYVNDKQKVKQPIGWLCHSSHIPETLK
Experiment: PBM E-score (8-mer binding enrichment) (E-score (-0.5 to 0.5)); higher = stronger / more preferred TF binding; most listed sequences are background and not binding sites
Details: protein concentration: 200 nM; construct: GST-full length
In short: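 E-scores (a modified Wilcoxon-Mann-Whitney statistic) were assigned by the Universal PBM Analysis Suite to every ungapped eight-base word pooled with its reverse complement. The input came from universal all-10-mer Agilent arrays made double-stranded by primer extension and probed with GST-tagged yeast transcription factors at about 100-200 nM. Fluorescent anti-GST detected bound protein, and masliner normalised the scans.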

| Sequence | PBM E-score |
| --- | --- |
| CTTTGTAA | 0.168 |
| GAGCCGGA | -0.113 |
| AGCAAGGG | -0.18 |
| AACGTACC | -0.0909 |
| ACCATTCC | 0.0147 |
| ACGGACAG | 0.175 |
| AACTCAGC | -0.0677 |
| CGTAGGGA | 0.0214 |
| CAATGAAA | 0.0415 |
| AGTAACCG | -0.102 |
| CGTTGGAA | -0.0918 |
| AACATTGC | -0.162 |
| CCTCCCCA | -0.193 |
| AGTTTTCA | 0.131 |
| AAGCTTCT | -0.0377 |
| AGGATGGG | -0.206 |
| AAGCAAAC | 0.0435 |
| GGGATACC | -0.242 |
| ATAGTGTA | 0.155 |
| CACAAGAA | 0.105 |
| ACGAGCTC | -0.0205 |
| GATACCAC | -0.0728 |
| TGTCTGAA | 0.364 |
| ACGCGAGT | 0.0252 |
| AGATATAG | 0.042 |

| Sequence | PBM E-score |
| --- | --- |
| AGGTCTAG | -0.134 |
| GGTCGACA | 0.0897 |
| CATAGCAG | -0.0677 |
| ACGAAGAT | 0.079 |
| ACACTGTC | 0.165 |
| ACATCTTA | 0.14 |
| AATTTCAC | 0.0162 |
| ACTCGTCT | 0.0875 |
| AAGCACTC | -0.237 |
| GCGGAGCA | -0.125 |
| CGCATAGC | -0.257 |
| AAGGTCAG | -0.0987 |
| AGTCCGCG | 0.0969 |
| GAGTGAGC | 0.00141 |
| CGAGGGAA | -0.00712 |
| CTATTGGC | -0.112 |
| GGGAACAA | 0.0643 |
| CCCACGAC | -0.0528 |
| TCGGGGAA | 0.105 |
| CCAACTCC | 0.00265 |
| AATTGAGC | -0.109 |
| CGGGTTAG | -0.252 |
| AAGGCTAG | 0.0752 |
| ACCCTGTA | 0.0623 |
| CGTTGGCC | -0.086 |

| Sequence | PBM E-score |
| --- | --- |
| ATAATAGG | -0.0345 |
| ATCATGTC | 0.278 |
| ACTGTACT | -0.00421 |
| CTCTATTA | -0.056 |
| CAGAGGGG | -0.377 |
| CGTTACAG | -0.139 |
| AGGGTTCA | 0.0476 |
| GTTACACA | 0.0679 |
| ATCGTTAA | 0.0888 |
| CTATTTTA | 0.194 |
| CCTGGTAC | -0.0538 |
| AGTGGTCC | -0.149 |
| GTAATGTA | 0.0561 |
| CCAACAAG | 0.151 |
| AAGTTAAC | 0.143 |
| ACTATCTC | 0.0498 |
| CGTATGTC | 0.359 |
| CAACTCTC | -0.0826 |
| CCAATCCC | -0.0552 |
| ACCAGTCA | -0.0816 |
| ATAAATTA | 0.343 |
| CACCATAC | -0.153 |
| GTTGACGA | 0.018 |
| GTTTCTAA | 0.0436 |
| CAGTGCAA | 0.0198 |

| Sequence | PBM E-score |
| --- | --- |
| GTTTACTA | 0.129 |
| GGCGTTTA | -0.0346 |
| TACACCCA | -0.0711 |
| CAAATTTG | 0.32 |
| ATGTTGAC | 0.137 |
| CAGGGGGA | -0.435 |
| GAGTCTAC | -0.249 |
| TTAATGAA | 0.228 |
| CTATCAAC | 0.157 |
| GCTTCCCA | -0.191 |
| AAAGCTTC | -0.0561 |
| ATATCGAT | 0.0924 |
| CTATGCTA | 0.0452 |
| GGACATCC | 0.475 |
| CCTTGCGC | -0.193 |
| CCTACACG | -0.141 |
| CCAAAGGG | -0.153 |
| ACAGCAGA | 0.0129 |
| ACGGTGTC | -0.047 |
| CTCTCCAG | -0.342 |
| GACCGCTC | -0.267 |
| AGCTCCCC | -0.259 |
| ACATATGT | 0.28 |
| ACAGCGGC | -0.0078 |
| CGATCTGA | -0.129 |

| Sequence | PBM E-score |
| --- | --- |
| GATTCAGA | 0.143 |
| CCCTACAG | -0.19 |
| ACGCTTCA | -0.133 |
| ATCTTCAC | 0.095 |
| AAACCCGT | -0.222 |
| CCGGCTTA | -0.14 |
| CATCTATC | -0.14 |
| AGTAGGTG | -0.0635 |
| TCGGGACA | 0.456 |
| GACCCTGA | -0.102 |
| AAACCGCA | -0.105 |
| CCCGGTTC | -0.207 |
| CACGTTCA | -0.0285 |
| GCGCGATA | 0.119 |
| TGCAGAAA | 0.0713 |
| GTCTACGA | 0.125 |
| AGTTGTCC | 0.441 |
| ATTGAGTC | -0.0428 |
| CGGAACGA | 0.167 |
| GTCTAACA | 0.115 |
| AAATTGCA | -0.0544 |
| ATGTTTTG | 0.12 |
| CAGTACGG | -0.0455 |
| AGGCTACC | -0.104 |
| CGCTATAC | -0.194 |

| Sequence | PBM E-score |
| --- | --- |
| GCGTCAGC | -0.0982 |
| GCTTGCCC | -0.405 |
| GTACCGTA | -0.107 |
| CAAACGTA | 0.167 |
| ACTGACCT | -0.063 |
| CTCTATCA | -0.0423 |
| GATTGGGC | -0.116 |
| GGAAAACA | 0.0419 |
| CGATAAAC | -0.0453 |
| GTCTCAGA | 0.0346 |
| ATAACGAC | 0.0786 |
| CCAACGAC | -0.0286 |
| ACCAGACC | -0.137 |
| GATTAATA | 0.143 |
| GGGGAATA | -0.0106 |
| TAAAACAA | 0.0622 |
| AGAATCCA | -0.0394 |
| ACCTCCGG | 0.0704 |
| GATTAGTA | 0.0785 |
| CGACTCGC | -0.0899 |
| AAGATATT | 0.165 |
| GTATGTTA | 0.0222 |
| GAGAATTA | 0.0576 |
| AGAATTCC | -0.006 |
| AGACGTTA | 0.0306 |

| Sequence | PBM E-score |
| --- | --- |
| GACCTTGA | -0.0767 |
| AAACATCA | 0.0319 |
| AGGTAGGG | -0.303 |
| ACACTTGG | -0.0164 |
| GGTGCCAA | -0.0356 |
| ACTTCGAG | 0.145 |
| ATCGGCTC | 0.0731 |
| CACTATTC | 0.109 |
| CATGCACG | -0.204 |
| AAGGATGA | -0.0102 |
| AAGTTCGG | 0.179 |
| CTGGACCA | 0.0881 |
| AAGAGATG | -0.123 |
| TGTCAGAA | 0.164 |
| ACGTTGAA | -0.0523 |
| ATGCAACC | 0.0478 |
| GCTACAAA | 0.0669 |
| ATCGACCA | -0.0891 |
| CGAGAATC | 0.135 |
| ACACAATC | 0.117 |
| CCCGCCTA | -0.00212 |
| GGATTAAC | -0.0303 |
| AATAAGAC | -0.00866 |
| CGTCTAGC | -0.0279 |
| AAGCCCGA | -0.00654 |

| Sequence | PBM E-score |
| --- | --- |
| CGCCGCTC | -0.118 |
| ATGATATC | 0.00666 |
| CCCCACGC | -0.289 |
| ATGAGCCA | -0.0639 |
| TGATTGCA | 0.00362 |
| ACCCGCAC | -0.149 |
| CAGGGATC | -0.266 |
| AGGACTCG | 0.112 |
| GACAAATA | 0.483 |
| CAGACGGG | -0.28 |
| AAATCCCG | 0.226 |
| AGGATTGC | -0.179 |
| GAGTGGAA | -0.0722 |
| AGGGCCAA | -0.218 |
| ACGTCAGC | -0.116 |
| GCTATGAC | 0.221 |
| AGCCAATC | -0.0429 |
| CCGTCACG | -0.0257 |
| TCCGAGCA | 0.104 |
| GAAGGCAA | -0.0336 |
| AAGATATG | 0.102 |
| ACCTAGCA | -0.0383 |
| CCAAAGGC | -0.088 |
| CGTAGTAA | -0.0642 |
| ACAGACGA | 0.153 |

| Sequence | PBM E-score |
| --- | --- |
| AATGCGAT | 0.0073 |
| AATCCAGG | 0.033 |
| CACGTGAG | 0.00406 |
| CCGCAAAG | 0.0143 |
| GCCCGATA | -0.0301 |
| ACGGTTTC | 0.0404 |
| ACGTCTCA | 0.0211 |
| GCACATAC | -0.162 |
| CTGGTCGA | -0.256 |
| GATAGTTA | 0.165 |
| AATTCGAA | 0.017 |
| CATGGATC | -0.0448 |
| AGTATGCC | -0.0784 |
| CTAGCTCA | -0.0294 |
| AGGAGCAA | -0.208 |
| CAGGCAAG | -0.187 |
| CTTCAGTA | 0.0429 |
| CTGCAGCA | -0.131 |
| CGCCGCCC | -0.157 |
